Molecules are shown by their SMILES. About 2,200 (0.71%) of roughly 310,000 compounds showed an effect of 50% or more. Effects have a minus sign here. This is one part of the list.

In this test the target is human ether-à-go-go-related gene (hERG) potassium channel (human, UniProt Q12809). The test can be described thus: primary screen, population patch clamp on CHO cells stably expressing hERG.
Sequence of human ether-à-go-go-related gene (hERG) potassium channel (Q12809 whole entry, looked up): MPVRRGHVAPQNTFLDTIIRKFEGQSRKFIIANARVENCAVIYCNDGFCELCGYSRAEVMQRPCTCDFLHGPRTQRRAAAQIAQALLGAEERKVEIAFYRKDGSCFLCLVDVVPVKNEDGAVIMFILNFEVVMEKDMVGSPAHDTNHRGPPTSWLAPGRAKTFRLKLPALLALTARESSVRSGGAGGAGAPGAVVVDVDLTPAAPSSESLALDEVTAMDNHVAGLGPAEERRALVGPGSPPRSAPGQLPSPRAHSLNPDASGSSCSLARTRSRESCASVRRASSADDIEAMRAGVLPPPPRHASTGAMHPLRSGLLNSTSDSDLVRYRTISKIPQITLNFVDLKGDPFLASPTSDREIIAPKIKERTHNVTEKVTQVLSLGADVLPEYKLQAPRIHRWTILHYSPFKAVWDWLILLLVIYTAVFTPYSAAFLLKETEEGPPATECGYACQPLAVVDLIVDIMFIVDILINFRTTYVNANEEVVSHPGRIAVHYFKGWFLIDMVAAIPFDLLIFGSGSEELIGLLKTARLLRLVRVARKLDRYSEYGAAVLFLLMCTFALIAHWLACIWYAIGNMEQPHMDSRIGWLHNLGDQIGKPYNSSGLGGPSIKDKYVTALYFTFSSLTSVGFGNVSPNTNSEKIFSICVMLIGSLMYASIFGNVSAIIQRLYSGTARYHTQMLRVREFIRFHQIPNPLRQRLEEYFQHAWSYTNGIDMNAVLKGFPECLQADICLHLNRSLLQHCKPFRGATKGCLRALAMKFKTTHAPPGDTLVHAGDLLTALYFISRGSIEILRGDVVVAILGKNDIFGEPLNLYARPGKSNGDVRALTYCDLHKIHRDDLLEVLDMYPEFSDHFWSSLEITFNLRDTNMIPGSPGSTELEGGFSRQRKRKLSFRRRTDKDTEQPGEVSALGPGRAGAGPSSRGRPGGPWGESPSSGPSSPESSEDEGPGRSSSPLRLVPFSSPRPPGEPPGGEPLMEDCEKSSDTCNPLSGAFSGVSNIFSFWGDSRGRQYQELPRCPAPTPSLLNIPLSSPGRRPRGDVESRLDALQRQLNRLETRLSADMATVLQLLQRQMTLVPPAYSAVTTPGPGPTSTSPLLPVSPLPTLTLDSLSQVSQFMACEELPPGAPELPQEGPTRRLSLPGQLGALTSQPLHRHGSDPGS
For the compound `COc1cc(C(=S)N2CCCC2)ccc1OCc1ccccc1`, the “hERG current change (%, negative = inhibition) at 1uM” value is given as 9.3%.
Then `COc1cccc(O)c1CN1CCC(C(=O)Nc2ccc(Oc3cccnc3)cc2)CC1`, with -0.888%; and `Cc1ccc(C(C(=O)NC2CCCCC2)N(C(=O)Cc2c[nH]c3ccccc23)c2ccccc2)o1` (stereo not drawn), with 7.19%.
Consider `CCOC(=O)N1CCC(NC(=O)C2CCCCN2S(=O)(=O)c2ccc(F)cc2)CC1` (stereo not drawn), for which the “hERG current change (%, negative = inhibition) at 1uM” value is listed as 10.9%.
For `CC(NC(=O)Nc1nnc(C(F)(F)F)s1)N1C(=O)C2C3C=CC(C3)C2C1=O` (stereo not drawn), the “hERG current change (%, negative = inhibition) at 1uM” value was -14.7%.
Then `Cc1c(/C=C2\SC(=O)N(CC(=O)Nc3ccc4c(c3)OCO4)C2=O)c2ccccc2n1C`, with 9.78%.
In the case of `Cc1ccc(-n2c(SCC(=O)NCCN3C(=O)CSC3=O)nnc2-c2ccccc2F)cc1` it was 18.8%.
In the case of `O=C(COC(=O)CN1C(=O)COc2ccccc21)NC1CCCCC1` it was 1.52%; in that of `Cc1ccc(CCNC(=O)C2CCCN2S(=O)(=O)c2ccc3c(c2)CCC(=O)N3)cc1` (stereo not drawn), -5.74%.
As to `CC(=O)Nc1ccc(S(=O)(=O)N(C)CC(=O)Nc2ccc(Br)cc2F)cc1`, the “hERG current change (%, negative = inhibition) at 1uM” value turned out to be 6.13%.
Turning to `COc1ccc(CCNC(=O)C/C(C)=N/NC(=O)c2cnccn2)cc1`, the “hERG current change (%, negative = inhibition) at 1uM” value is 15.7%.
Then `CCC(=O)Nc1cccc(NC(=S)NC(=O)c2cc3ccccc3o2)c1`, with 17.5%; and `CN1C2=NCCN2C(=O)c2cc(Cl)ccc21`, with 11.9%; and `Cc1cc(C(=O)NP(=O)(N2CCOCC2)N2CCOCC2)c(C)n1C1CC1`, with 7.72%.
As for `COc1ccc(CN(C)Cc2c(O)ccc3ccccc23)cc1`, the “hERG current change (%, negative = inhibition) at 1uM” value was found to be 2.84%.
In the case of `Cn1c(=O)c(C(=O)COc2ccc(C#N)cc2)c(N)n(Cc2ccccc2)c1=O` it was -2.83%.
Turning to `CCCC(=O)Nc1c(-c2ccccc2Cl)c(=O)c2ccccc2n1C`, the “hERG current change (%, negative = inhibition) at 1uM” value is 21.7%.
In the case of `CC(Sc1nnc2ccccn12)C(N)=O` (stereo not drawn) it was 6.22%.
As for `CC1CCC(=C(C#N)C(=O)Nc2cccc(Cl)c2)CC1` (stereo not drawn), the “hERG current change (%, negative = inhibition) at 1uM” value worked out at 10.6%.
In the case of `CC(NC(=O)c1cccnc1)C(c1cccs1)N1CCN(C)CC1` (stereo not drawn) it was 8.63%.
Then `Cc1cc(C)cc(NC(=O)COC(=O)c2ccc(CN3CCCC3=O)cc2)c1`, with -2.11%; and `CC1(C)NC(=O)N(CCCCOc2ccccc2[N+](=O)[O-])C1=O`, with 2.48%; and `CCOC(=O)c1oc2ccc(S(=O)(=O)n3nc(-c4ccc(Cl)cc4)cc3N)cc2c1C`, with 6.88%.
Then `CCOC(=O)C1CCN(S(=O)(=O)c2ccc(OCC)cc2)CC1`, with -8.01%.
